The whole screen tested about 110,000 compounds, of which about 40 (0.04%) were called active. The shares of active, inactive and inconclusive entries below differ from those in the screen. Calls come from the whole dose curve; as a rule, active = well fitted curve in the direction sought with a large enough effect in the signal ratio (not every such curve was filed as active); inconclusive = small, poorly fitted or top-dose-only effect, or a change in a side signal; inactive = flat fitted curve, though single readings scatter; the % refers to the signal ratio. A potency beside an inconclusive call is a rough fit, not a confirmed value.
Assay: IkB Signaling;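 for IkBa stabilization activation: 0% = basal untreated cells and 100% = reference inhibitor full response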
Conditions: ABC-DLBCL IkBa-CBG/CBR dual luciferase ratio (green luciferase fused to IkBa over red control in OCI-Ly3 lymphoma cells), 4 h; IkBa stabilization activation: at 57.1 µM (top of the series), scaled: untreated 0%, proteasome inhibitor 100% unless noted
Procedure, shortened: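 Curves were fitted separately to fusion (green), unfused (red) and ratio luminescence, then classed by r2, magnitude and activity. Cells: OCI-Ly3, 4 h compound plus doxycycline at 37C; 10 uM MG-132 defined full response.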
Potency is the fitted concentration of half-maximal effect.

Structure (SMILES)	IkBa stabilization activation	Potency
CCc1nnc(NC(=O)CSc2ncc(-c3ccccc3)n2CC)s1	inconclusive: 3.04% [signal inhibitor]	
CCOC(=O)c1cc(OC(=O)c2cc(Cl)ccc2OC)n(-c2ccccc2)n1	inactive: -0.65%	
Clc1ccc(-c2nnc(-c3cccc4ccccc34)o2)cc1Cl		inconclusive: 0.2 µM [signal inhibitor, full curve]
CCc1ccc(S(=O)(=O)c2nnn3c2nc(NCCC(C)C)c2cc(Cl)ccc23)cc1	inconclusive: 1.99% [signal inhibitor]	
CC(CCc1ccccc1)NC(=O)C1CCCN(c2nnc(-n3cccc3)s2)C1 (stereo not drawn)	inconclusive: 1.91% [signal inhibitor]	
COc1ccc2c(c1)c(CC(=O)Nc1cc(C)c(OC)c(C)c1)c(C)n2C(=O)c1ccc(Cl)cc1	inconclusive: 6.82% [signal inhibitor]	
CC(=O)c1ccc(OC(=O)c2c(-c3ccccc3Cl)noc2C)cc1	inconclusive: 0.949% [signal inhibitor]	
Cn1nc(C(=O)Nc2cccc(C(F)(F)F)c2)c2c1-c1ccccc1S(=O)(=O)C2	inconclusive: 1.58% [signal inhibitor]	
O=C(COc1ccc(Cl)cc1Cl)Nc1ccc(C(=O)OC2CCCCC2)cc1	inactive: 9.46%	
CCCN(CCC)S(=O)(=O)c1ccc(C(=O)N2CCn3c4c(c5cc(C)ccc53)CCCC42)cc1 (stereo not drawn)	inconclusive: 0.599% [signal inhibitor]	
CCOc1ccc(NS(=O)(=O)c2ccc3[nH]cc(C(=O)NCCc4ccccc4)c(=O)c3c2)cc1	inconclusive: 3.31% [signal inhibitor]	
Cc1occc1C(=O)Nc1ccc2ccccc2c1	inconclusive: 6.75% [signal inhibitor]	
Nc1nonc1-c1nc2ccccc2n1CC(=O)Nc1ccc(F)cc1	inconclusive: 2.11% [signal inhibitor]	
COc1ccc(-c2nc(SCC(=O)NCc3ccco3)c(-c3ccccc3)[nH]2)cc1OC	inconclusive: 3.8% [signal inhibitor]	
CC(=O)C1=C(C)NC(=O)NC1c1cccc(O)c1 (stereo not drawn)	inactive: -3.87%	
Cc1ccc(S(=O)(=O)c2cn(CC(=O)Nc3ccccc3)c3cc4c(cc3c2=O)OCO4)cc1	inconclusive: 1.4% [signal inhibitor]	
Cc1ccc(-c2nc(CS(=O)CC(=O)O)c(C)o2)cc1 (stereo not drawn)	inconclusive: 7.09% [signal inhibitor]	
COc1cccc(N2CCN(CC(=O)Nc3nnc(-c4ccccc4)s3)CC2)c1	inconclusive: 3.81% [signal inhibitor]	
COc1cc2oc(-c3ccccc3)cc(=O)c2cc1OC	inactive: -1.27% [at 11.4 µM, scaled: untreated 0%, proteasome inhibitor 100%]	
CC(=O)c1cccc(NC(=O)c2cc(C(C)C)on2)c1		inconclusive: 25.1 µM [signal inhibitor, partial curve]
CC(C)(C)Nc1nc(SCc2ccccc2)nc(N2CCOCC2)n1	inactive: 0.842%	
Cc1cccc(N2CCN(C(=O)c3ccc4c(c3)CCN4S(=O)(=O)c3ccccc3)CC2)c1C	inconclusive: 0.269% [signal inhibitor]	
Cn1c2ccccc2c2c(C(=O)N3CCN(c4cccc(C(F)(F)F)c4)CC3)cn(C3CCCCC3)c(=O)c21	inactive: 2.98%	

Structure (SMILES)	IkBa stabilization activation	Potency
CN(C)C(=O)c1ccc(-c2nc(Nc3ccccc3)c3ccccc3n2)cc1	inactive: -6.06% [at 11.4 µM, scaled: untreated 0%, proteasome inhibitor 100%]	
CCC(C(=O)Nc1cc(OC)ccc1OC)n1nc(-c2ccccc2)c2c(c1=O)CCCC2 (stereo not drawn)	inconclusive: 2.18% [signal inhibitor]	
CN(C)S(=O)(=O)N(CC(=O)NCCSc1ccc(Cl)cc1)c1ccccc1		inconclusive: 25.1 µM [signal inhibitor, partial curve]
CCN(CC)S(=O)(=O)c1ccc2nnn(OCC(=O)Nc3cccc(C#N)c3)c2c1	inconclusive: -0.131% [signal inhibitor]	
COc1ccccc1NC(=O)C1(C)Cc2ccccc2C(=O)O1 (stereo not drawn)	inactive: 8.47%	
CC1CN(C(=O)Nc2ccc3snnc3c2)c2ccccc21 (stereo not drawn)	inconclusive: 8.29% [signal inhibitor]	
COc1ccccc1C(=O)NCCc1csc(-c2ccc(C(F)(F)F)cc2)n1	inconclusive: -1.1% [signal inhibitor]	
COc1cc(NC(=O)Cn2c(=O)n(CC3CCCO3)c(=O)c3cc(OC)c(OC)cc32)cc(OC)c1 (stereo not drawn)	inconclusive: -2.55% [signal inhibitor]	
CC(C)CN1CCCC2(CCN(S(=O)(=O)c3ccccc3)CC2)C1	inactive: 1.15% [at 11.4 µM, scaled: untreated 0%, proteasome inhibitor 100%]	
CCc1ccc(C2CC(=O)N(c3cccc(C(F)(F)F)c3)C3=C2C(=O)OC3)cc1 (stereo not drawn)	inconclusive: 5.2% [signal inhibitor]	
Cc1ccc(C)c(NC2=C(c3ccc(C(F)(F)F)cc3)C(=O)c3ccccc32)c1	inconclusive: 10.2% [signal inhibitor]	
CC(C)[C@@H]1C(=O)N(S(C)(=O)=O)[C@H]2CCN(C(=O)/C=C\CN3CCCCC3)[C@@H]12	inactive: 0.263%	
CCN(Cc1nc2ccccc2c(=O)[nH]1)Cc1nc2cc(OC)c(OC)cc2c(=O)[nH]1	inactive: -3.43%	
Cc1cccc(Cn2nnc3c(=O)[nH]c(C4CCCN(C(=O)c5ccc(C(C)(C)C)cc5)C4)nc32)c1 (stereo not drawn)	inactive: -0.559%	
CCCN1CCCc2cc(CN(CCCN3CCOCC3)C(=O)Nc3ccc(OCC)cc3)ccc21	inconclusive: -1.58% [signal inhibitor]	
COc1ccc2c(CNC3CCC(C)CC3)c(C(=O)O)n(Cc3ccccc3)c2c1 (stereo not drawn)	inconclusive: -0.61% [signal inhibitor]	
O=C(CN(Cc1ccccc1Cl)C(=O)Cn1nnc(-c2cccs2)n1)NCC1CCCO1 (stereo not drawn)	inactive: -0.666%	
COc1ccccc1NC(=O)C1=C(C)Nc2nc(SCc3ccccc3Cl)nn2C1c1cccnc1 (stereo not drawn)	inconclusive: 3.98% [signal inhibitor]	
N#Cc1cnc2sc3ccccc3n2c1=N		inconclusive: 20 µM [signal inhibitor, partial curve]
Cc1ccc(NC(=O)CN2CCN(C3CCCCC3)C(=O)C2=O)cc1C	inconclusive: 1.53% [signal inhibitor]	
COC(=O)c1ccc(CSc2nc3c(c(=O)n2-c2ccccc2)SCC3)o1	inactive: 2.02%	
CCCN1C(C(=O)c2ccccc2)=C(OC(=O)C(C)(C)C)c2ccccc2S1(=O)=O	inconclusive: 0.842% [signal inhibitor]	
Cc1ccc2c(c1)sc1nc(=O)n(-c3cccc(Cl)c3)c(=O)n12	inconclusive: 3.34% [signal inhibitor]	

Structure (SMILES)	IkBa stabilization activation	Potency
CCCCc1nn2c(C)c(-c3ccc(OCC)cc3)nc2s1	inactive: -2.42%	
O=C(Cn1ncc2c3ccccc3n(Cc3cccc(Cl)c3)c2c1=O)N1CCCCC1	inconclusive: 2.61% [signal inhibitor]	
COc1ccc(CN2C(=O)c3ccccc3C2C(=O)NC2CCCCCC2)c(OC)c1 (stereo not drawn)	inconclusive: 2.04% [signal inhibitor]	
COc1ccc2oc(=O)c(-c3nc4ccc(C)cc4[nH]3)cc2c1	inconclusive: -2.12% [signal inhibitor]	
CCOC(=O)c1cc(-c2ccc(F)cc2)n(CCC(=O)NCc2ccc(C)cc2)c1C	inactive: -4.26%	
COc1ccc(Br)cc1CC1C(=O)Nc2ccccc21 (stereo not drawn)	inconclusive: 2.24% [signal inhibitor]	
CCC1Oc2ccc(C)cc2N(CC(=O)N(Cc2cccnc2)Cc2ccc(C)o2)C1=O (stereo not drawn)	inconclusive: 0.348% [signal inhibitor]	
COc1ccccc1OCC(=O)Sc1ccc(C)cc1	inconclusive: 7.87% [signal activator]	
CN(C)S(=O)(=O)c1ccc(NC(=O)c2ccccn2)cc1	inactive: 2.07%	
CCCCNC(=O)CS(=O)Cc1nc(-c2ccc(C)cc2)oc1C (stereo not drawn)	inactive: -3.17%	
CCN(CCCNC(=O)CCCN1C(=O)COc2ccc(C)cc21)c1cccc(C)c1	inconclusive: 4.22% [signal inhibitor]	
Cn1c(=O)cc(OCC(=O)N2CCN(c3ccccc3F)CC2)c2ccccc21	inconclusive: 2.6% [signal inhibitor]	
Cc1cc2oc(C(=O)N(Cc3ccc(N(C)C)cc3)CC3CCCO3)c(C)c2cc1C (stereo not drawn)	inconclusive: -3.66% [signal inhibitor]	
O=c1cc[nH]c2cccc(Cc3ccccc3)c12	inconclusive: 2.25% [signal inhibitor]	
CCC1=Nc2cc(C(=O)NCCCOC(C)C)ccc2Sc2ccc(C)cc21	inactive: -2.32%	
CCN1CCc2c(sc(NC(=O)CSc3ccccc3)c2-c2nc3ccccc3s2)C1	inconclusive: -2.19% [signal inhibitor]	
Cc1ccc(OCCSc2nc3ccccc3n2CC(=O)N2CCCCC2)cc1C	inconclusive: -2.05% [signal inhibitor]	
COC(=O)c1ccccc1NC(=O)CCn1nc(C)c2c(C)n(-c3ccccc3)nc2c1=O		inconclusive: 10 µM [signal inhibitor]
COC(=O)c1oc2ccc(Br)cc2c1NC(=O)CCCN1C(=O)c2ccccc2C1=O	inactive: -0.865%	
CCOc1cccc2sc(NC(=O)c3ccc(S(=O)(=O)N4CCc5ccccc54)cc3)nc12		inconclusive: 25.1 µM [signal inhibitor]
Cc1csc(NC(=O)C(NS(=O)(=O)c2ccc(Br)s2)c2ccccc2)n1 (stereo not drawn)	inconclusive: 7.18% [signal inhibitor]	
Cn1c2ccccc2c2c(C(=O)NCC3CCCO3)cn(C3CCCC3)c(=O)c21 (stereo not drawn)	inactive: -0.0229%	

From PubChem BioAssay AID445 (National Center for Advancing Translational Sciences (NCATS), 2006)
